Test results reported in PubChem BioAssay AID304 (DTP/NCI, 2004).
Inconclusive results and toxic doses are left out. The source holds more than one record for some entries. This is not the full list of results. There may be further records. Results that share an entry repeat one measurement (runs, samples, wells, individuals or studies).

Tested on: Lymphosarcoma Mecca ip in C3AKF1 mice, survival T/C%
Assay: NCI In Vivo Anticancer Drug Screen. Data for tumor model Lymphosarcoma Mecca (intraperitoneal) in C3AKF1 (CHKRF1) mice
Conditions: endpoint: survival time, mean or median, schedule: Q01DX010 (ip), higher = longer survival
Method: The antitumor activity of compounds was measured in mice bearing transplantable tumors. Survival or tumor size were measured and the results are expressed as the measurement made in the treated group (T) divided by the measurement made in the vehicle treated control group (C). The tumor model used in this assay is Lymphosarcoma Mecca (intraperitoneal) in C3AKF1 (CHKRF1) mice

SMILES: CC(=O)NC1=C(N2CC2)C(=O)C(NC(C)=O)=C(N2CC2)C1=O
- T/C (dose: 0.25 mg/kg/injection, vehicle: saline): 122 % of control and 166 % of control

SMILES: O=C(O)c1[nH]c(=O)[nH]c(=O)c1F
- T/C (dose: 5.0 mg/kg/injection, vehicle: saline): 94 % of control and 150 % of control
- T/C (dose: 10.0 mg/kg/injection, vehicle: saline): 94 % of control and 150 % of control

SMILES: NC(=O)N(CCCl)N=O
- T/C (dose: 2.0 mg/kg/injection, vehicle: saline): 113 % of control and 170 % of control

SMILES: CCOC(=O)NP(=O)(N1CC1)N1CC1
- T/C (dose: 20.0 mg/kg/injection, vehicle: saline): 111 % of control and 155 % of control

SMILES: Nc1nc(N)c2nc(CNc3ccc(C(=O)NC(CCC(=O)O)C(=O)O)cc3)cnc2n1 (stereo unspecified)
- T/C (dose: 0.05 mg/kg/injection, vehicle: other): 124 % of control and 165 % of control
